Reference: the supplement of paper PMC3334620
The full ranking holds about 33,000 sequences; the median of “E-score (-0.5 to 0.5)” is about -0.013, and the highest 2% start at about 0.3. This is one part of the list.

target: T1, Msn1 (UniProt P22148); assay: PBM E-score (8-mer binding enrichment) (E-score (-0.5 to 0.5)); higher = stronger / more preferred TF binding; most listed sequences are background and not binding sites; conditions: protein concentration: 200 nM; construct: GST-full length
T1 sequence: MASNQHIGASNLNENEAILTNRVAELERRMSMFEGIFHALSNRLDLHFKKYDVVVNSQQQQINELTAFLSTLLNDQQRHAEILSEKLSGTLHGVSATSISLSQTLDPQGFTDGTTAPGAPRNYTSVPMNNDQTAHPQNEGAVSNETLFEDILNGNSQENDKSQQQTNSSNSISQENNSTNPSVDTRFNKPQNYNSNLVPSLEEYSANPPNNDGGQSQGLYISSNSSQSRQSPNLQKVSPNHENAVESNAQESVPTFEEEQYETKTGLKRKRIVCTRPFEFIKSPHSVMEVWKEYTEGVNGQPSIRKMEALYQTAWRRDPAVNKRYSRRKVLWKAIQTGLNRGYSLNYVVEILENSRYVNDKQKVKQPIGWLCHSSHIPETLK
Method: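 Universal 'all 10-mer' protein binding microarrays (Agilent AMADID 015681) probed with GST-tagged S. cerevisiae TFs (full-length or DBD) made by in vitro transcription/translation (PURExpress), about 100-200 nM. Bound TF was detected with fluorescent anti-GST. Each ungapped 8-mer (which stands for itself and its reverse complement) is scored by the PBM enrichment score (E-score), a modified Wilcoxon-Mann-Whitney statistic from -0.5 to +0.5, computed with the Universal PBM Analysis Suite. Scale: above 0.35 generally sequence-specific binding.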

Compared with ATGAAAAT, TAAGAGGA is lower in “PBM E-score” value: 0.211 for the first, -0.0597 for the second.

Compared with ATGGCCAC, CAGTTCAG is higher in “PBM E-score” value: -0.296 for the first, -0.18 for the second.

First: AAAATTAC
Second: CTCACCCC
The “PBM E-score” value of the first is higher: 0.134 for the first, -0.243 for the second.

First: CGCCGCGA
Second: GTTAACTA
The “PBM E-score” value of the first is higher: 0.082 for the first, -0.00919 for the second.

First: CGTCCCAA
Second: CATCTCCC
The “PBM E-score” value of the first is higher: 0.218 for the first, -0.122 for the second.

Compared with CTCAAGAC, ACCTATAG is lower in “PBM E-score” value: 0.0771 for the first, -0.206 for the second.

Compared with AGGCCATG, GCAAAAAC is higher in “PBM E-score” value: 0.0901 for the first, 0.127 for the second.

Compared with CCTCATAC, TCAGTAAA is higher in “PBM E-score” value: 0.0462 for the first, 0.151 for the second.

Compared with AGTGACTA, ACAGATGC is lower in “PBM E-score” value: 0.0812 for the first, 0.0152 for the second.

Going from CGACTGCA to AACCGACT, the “PBM E-score” value rises from -0.0411 to 0.0458.

Compared with AACAAACC, CGTGCAAA is lower in “PBM E-score” value: 0.155 for the first, 0.0124 for the second.

First: CCAGATCC
Second: GGCAAACA
The “PBM E-score” value of the first is lower: -0.293 for the first, 0.076 for the second.

First: ATATGAGA
Second: CCCATTAG
The “PBM E-score” value of the first is higher: 0.0596 for the first, -0.329 for the second.

First: ACTAATTG
Second: GAGAGTGC
The “PBM E-score” value of the first is higher: 0.16 for the first, -0.181 for the second.

Going from GAACGTGC to ACGTCGAG, the “PBM E-score” value rises from -0.217 to -0.0605.

First: CGACGTAC
Second: CGTAGACG
The “PBM E-score” value of the first is lower: -0.0473 for the first, 0.0263 for the second.

Compared with GCGTGTAA, AACAACTC is higher in “PBM E-score” value: -0.056 for the first, -0.0213 for the second.

Compared with CGCCCTAC, ACGGTCCG is higher in “PBM E-score” value: -0.291 for the first, -0.0941 for the second.

Going from GGGCACAA to GTCGAAGA, the “PBM E-score” value rises from -0.131 to 0.0857.

Compared with CTCTAGAA, GGGAGAGA is lower in “PBM E-score” value: 0.0416 for the first, -0.238 for the second.

First: CCTTGGGC
Second: AGCTTTAG
The “PBM E-score” value of the first is lower: -0.279 for the first, -0.026 for the second.

First: TCATATAA
Second: ATCGAATA
The “PBM E-score” value of the first is higher: 0.0946 for the first, -0.0288 for the second.

Compared with AGCTGCCT, CCACCAGA is lower in “PBM E-score” value: -0.244 for the first, -0.257 for the second.

Going from TAAATTCA to GTACATCA, the “PBM E-score” value rises from 0.00407 to 0.146.

Compared with AACCGGTA, ACCGTGTA is higher in “PBM E-score” value: -0.0654 for the first, 0.0262 for the second.

Compared with TAAGCTGA, CAATCCAC is higher in “PBM E-score” value: -0.0597 for the first, -0.0564 for the second.

First: CTGAAGAA
Second: CTCACCAC
The “PBM E-score” value of the first is lower: -0.16 for the first, -0.0522 for the second.

Going from TAACCTAA to GAATTGGC, the “PBM E-score” value falls from 0.00422 to -0.278.

First: ATAAACAT
Second: GTATGCAA
The “PBM E-score” value of the first is higher: 0.125 for the first, -0.00101 for the second.

Going from ATAGATCA to AGTTAGAC, the “PBM E-score” value falls from 0.147 to 0.124.

Going from GGTAGCAA to TATCTAGA, the “PBM E-score” value rises from -0.098 to -0.0296.

First: AGTCAGAA
Second: CTGGCAAC
The “PBM E-score” value of the first is lower: -0.0729 for the first, 0.0713 for the second.

Going from ATAACACA to ATTGTTGA, the “PBM E-score” value falls from 0.0274 to 0.0126.

Compared with AAGTAGTG, ATGCAAGC is lower in “PBM E-score” value: -0.0319 for the first, -0.106 for the second.

First: AGGTAGCC
Second: GAAGCAGC
The “PBM E-score” value of the first is higher: -0.0374 for the first, -0.0921 for the second.

First: CATATTGC
Second: CATCGGCC
The “PBM E-score” value of the first is lower: -0.129 for the first, -0.0617 for the second.

Compared with CATGATGG, ACAGCCTG is higher in “PBM E-score” value: -0.158 for the first, -0.0349 for the second.

Going from CGGCACAC to ACGCTACT, the “PBM E-score” value falls from 0.0246 to -0.113.

Going from ATTTATAA to AGATCATC, the “PBM E-score” value falls from 0.322 to -0.0974.

Compared with CAGGCAGC, ATCTAATC is higher in “PBM E-score” value: -0.15 for the first, 0.037 for the second.

Compared with CTAGTAAG, ACAGAAGG is lower in “PBM E-score” value: 0.0281 for the first, 0.00522 for the second.

Compared with CTTGAGTA, CCGGATGC is lower in “PBM E-score” value: -0.0328 for the first, -0.0974 for the second.

First: ATACTCTG
Second: ATAGTTGA
The “PBM E-score” value of the first is higher: 0.0822 for the first, 0.0511 for the second.

First: AAGGAGAA
Second: CTTGATTC
The “PBM E-score” value of the first is lower: -0.162 for the first, 0.0671 for the second.

First: ACCCAACA
Second: ACGAAGAG
The “PBM E-score” value of the first is lower: -0.179 for the first, -0.0472 for the second.

Compared with AGAGCTAA, CATAACTA is higher in “PBM E-score” value: -0.0343 for the first, 0.116 for the second.

Going from GAGGAGAA to CAGGGAGC, the “PBM E-score” value rises from -0.216 to -0.175.

First: CTCAGTGC
Second: CGGGTACG
The “PBM E-score” value of the first is higher: -0.0812 for the first, -0.269 for the second.

First: CTTAGCCA
Second: AAAAGATT
The “PBM E-score” value of the first is lower: -0.0398 for the first, 0.0785 for the second.

First: CAGAGCTA
Second: CGCACAAG
The “PBM E-score” value of the first is lower: -0.28 for the first, 0.0585 for the second.

Going from CACATTTC to CAATACAA, the “PBM E-score” value falls from 0.0909 to 0.0229.

First: GGTGCCTA
Second: CTAGCGCA
The “PBM E-score” value of the first is higher: -0.107 for the first, -0.153 for the second.

Going from CTCGGGAA to AGTAACAC, the “PBM E-score” value falls from 0.0364 to -0.0452.

First: TACATGTA
Second: CCCCCCAC
The “PBM E-score” value of the first is higher: 0.247 for the first, -0.373 for the second.

For CCAGACTA, the “PBM E-score” value was 0.11.
